From patent US11932650B2, “Potent agelastatin derivatives as modulators for cancer invasion and metastasis” (Massachusetts Institute of Technology, priority 2017, dated 2024)
Where two headings read alike, the source gives them in different places.

How the values were obtained:
[1] = test system: osteopontin (OPN) transcription; test: Quantitative RT-PCR for OPN mRNA in mammary fibroblasts treated with vitamin D; type: cell-based, human; settings: for activity in blocking vitamin D-induced OPN transcription in fibroblasts: natural agelastatins A-F examined
Experimental: Quantitative Reverse Transcription Polymerase Chain Reaction (RT-PCR) for OPN (FIGS. 3 and 8). Total RNA synthesis was carried out using the acid guanidinium thiocyanate-phenol-chloroform extraction method^25 per manufacturer protocol. First strand cDNA synthesis was performed using a version of Moloney murine leukemia virus reverse transcriptase per manufacturer protocol. Some mammary fibroblasts were treated with 48 hours of 10 nM vitamin D and AgA, AgE, or agelastatin derivative as indicated prior to assay. Quantitative PCR was performed in triplicate reactions in 20-μl volumes containing cDNA with cyanine dye and DNA polymerase master mix, using the following primer sets: glyceraldehyde 3-phosphate dehydrogenase (GAPDH), 5′-[…]-3′ (sense)(SEQ ID NO. 1), 5′-[…]-3′ (antisense)(SEQ ID NO. 2); OPN, 5′-[…]-3′ (sense)(SEQ ID NO. 5), 5′-[…]-3′ (antisense)(SEQ ID NO. 4). Real-time PCR parameters: 95° C. for 10 min; 95° C. for 30 s, 60° C. for 60 s, 72° C. for 60s for 40 cycles. Data analysis was done using a continuous fluorescence detector. The comparative threshold cycle (2^−ΔΔCT) value^26 was calculated following GAPDH normalization.
Effects of Agelastatin Derivatives (FIG. 8). Quantitative RT-PCR for OPN mRNA relative to GAPDH control from mammary fibroblasts treated with 48 hours of vitamin D, and AgA, AgE, or agelastatin derivatives as indicated. […] Detailed experimental methods are described above for FIG. 3.

cell proliferation = settings: 75-100 nM; cited from earlier work
[2] = test system: SUM1315 breast cancer cells; settings: 3D assay system; low concentrations; cited from earlier work
[3] = test system: SUM1315 breast cancer cells; test: 3D mixed cell spheroid co-culture invasion assay (projections per spheroid); type: cell-based, human; settings: for number of projections per spheroid: Tiam1-deficient fibroblasts
From the text: Cancer cells were co-cultured in 3D media mixture with reduction mammary fibroblasts (RMF) with either wild-type retroviral hairpin control vector (C-RMF) or Tiam1 silencing hairpin vector (shTiam-RMF).
Spheroid Co-Culture Methods (FIG. 4). Three-dimensional co-cultures with SUM1315 cells and fibroblast lines were established in phenol-red free basement membrane matrix from the Engelbreth-Holm-Swarm mouse sarcoma (medium mixture as previously described)^9 Cultures had equal volumes of DMSO, AgA, or AgE incorporated into the matrix and culture medium at the indicated concentrations. Stock solutions (1 mM) were stored in DMSO at −20° C. and diluted in culture medium to indicated final concentrations.
Number of projections per spheroid was quantified using an Eclipse TS100 inverted tissue culture microscope and depicted as number of spheroids with indicated number of projections as percent of total spheroids. At least 100 spheroids were counted for each experimental condition. Results are representative of duplicate experiments. Cells were isolated from 3D co-cultures and cancer cells were separated from fibroblasts as described previously.

[4] = test system: osteopontin (OPN) transcription; settings: at concentrations well below the cytotoxic range; cited from earlier work
[5] = Toxicity of AgA dosing in mice (dose-toxicity experiment); type: in vivo; settings: 2.5 mg/kg/day; precluded further dosing; hunched posture, decreased mobility, fur ruffling, lack of weight gain (note 13)
[6] = test system: SUM1315 breast cancer cells; settings: co-cultures with fibroblasts with up-regulated OPN treated, cells then implanted into mice, cited from earlier work
[7] = test system: SUM1315 breast cancer cells; test: Transwell migration of post-co-culture SUM1315 cells; type: cell-based, human
From the text: Transwell Migration Assays (FIG. 5). Transwell migration of SUM1315 after isolation from mixed cell spheroid co-cultures with indicated mammary fibroblasts, with or without indicated agelastatin compound. Cultured cells were deprived of serum overnight, trypsinized, and plated at a density of 1×10^5/mL.

[8] = two dimensional (2D) cultures, FIG. 3

CN1C(=O)N[C@H]2[C@@H]3NC(=O)c4ccc(Br)n4[C@@H]3C[C@]21O [AgA (1), (−)-agelastatin A]
induction of osteopontin transcription ([1]; induced by cancer cell secreted factors as well as vitamin D): can inhibit the induction of osteopontin transcription | activity in blocking vitamin D-induced OPN transcription in fibroblasts [1]: had the desired activity | assay concentrations relative to cytotoxic range in cell culture (cell proliferation): far below cytotoxic range | effects of up-regulated fibroblast OPN on cancer cell adhesion, invasion, and cancer stem cell populations [2]: abrogates the effects of up-regulated fibroblast OPN | number of projections per spheroid ([3]; 75-nM concentration, FIG. 4 column 6): decreases the number of projections to the baseline number | vitamin D-induced transcription of osteopontin (OPN) in mammary fibroblasts [4]: inhibit vitamin D-induced transcription of osteopontin (OPN) | toxicity on direct dosing of mice [5]: toxicity in the animals within three to four weeks | lung metastasis of cancer cells after treatment of the co-cultures [6]: completely blocked | lung metastasis of cancer cells after treatment of the co-cultures ([6]; listed as AgA): prevents subsequent lung metastasis | transwell migration of PCC cells exposed to Tiam1-deficient fibroblasts ([7]; 75-nM concentration in the co-cultures, FIG. 5 column 6): blocked

CN1C(=O)N[C@H]2[C@@H]3NC(=O)c4cc(Br)c(Br)n4[C@@H]3C[C@]21O [AgB, agelastatin B]
activity in blocking vitamin D-induced OPN transcription in fibroblasts [1]: possible negative influence

O=C1N[C@H]2[C@@H]3NC(=O)c4ccc(Br)n4[C@@H]3C[C@@]2(O)N1 [AgD]
activity in blocking vitamin D-induced OPN transcription in fibroblasts [1]: possible negative influence

CO[C@@]12C[C@@H]3[C@@H](NC(=O)c4ccc(Br)n43)[C@@H]1NC(=O)N2C [AgE (5), (−)-agelastatin E]
activity in blocking vitamin D-induced OPN transcription in fibroblasts [1]: had the desired activity | potency in comparison to AgA (1) in blocking stimulated OPN transcription [1, 8]: increased potency | stimulated OPN transcription [1, 8]: consistently blocked stimulated OPN transcription | number of projections per spheroid ([3]; 25-nM concentration, FIG. 4 column 7): partially restores the number of projections toward baseline | number of projections per spheroid ([3]; 50-nM concentration, FIG. 4 column 8): decreases the number of projections to below the baseline condition | potency in decreasing the invasiveness induced by Tiam1-deficient fibroblasts ([3]; AgE 25/50 nM versus AgA 75 nM): more potent than AgA (1) | transwell migration of PCC cells exposed to Tiam1-deficient fibroblasts ([7]; 25-nM concentration, FIG. 5 column 7): decreased the migration | transwell migration of PCC cells exposed to Tiam1-deficient fibroblasts ([7]; 50-nM concentration, FIG. 5 column 8): decreasing the number of migrating cells below the baseline condition

O=C1N[C@H]2[C@@H]3NC(=O)c4cc(Br)c(Br)n4[C@@H]3C[C@@]2(O)N1 [AgF]
activity in blocking vitamin D-induced OPN transcription in fibroblasts [1]: possible negative influence
